This is one part of the list.

This experiment has as its target T1, OsWOX13 (Oryza sativa, UniProt Q5QMM3 1-267).
T1 sequence: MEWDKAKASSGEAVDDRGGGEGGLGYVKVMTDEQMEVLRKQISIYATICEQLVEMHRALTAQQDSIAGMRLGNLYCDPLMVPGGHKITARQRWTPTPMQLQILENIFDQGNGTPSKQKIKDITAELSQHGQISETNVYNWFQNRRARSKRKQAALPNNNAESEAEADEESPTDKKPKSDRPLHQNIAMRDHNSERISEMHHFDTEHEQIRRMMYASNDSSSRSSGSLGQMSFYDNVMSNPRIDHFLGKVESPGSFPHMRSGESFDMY
Description: protein-binding microarray (RPBM); PBS, 2% BSA, 51.3 ng/ul salmon testes DNA, 50 uM zinc acetate, 200 nM TF, 25 C, 1 h; high values mean tight binding. The following applies: protein: recombinant; tags: N-terminal polyhistidine and DsRed monomer fusion (pET32a); label: CyDye5-dUTP incorporated in the synthesized complementary strand; 3' TTTTT single-stranded linker to array surface; dsDNA, one strand shown. Summed up: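 Binding signal is reported as fluorescence intensity per feature (arbitrary units) from an Axon 4000B scanner. Incubation used 200 nM of each Ni–NTA-purified, N-terminally polyhistidine- and DsRed-fused transcription factor from E. coli BL21-CodonPlus on a double-stranded custom Agilent array for 1 h at 25 °C, with 50 µM zinc acetate in the buffer, followed by washing.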
Consider “AAGATTGGTTAATTACTATTTTACGAGCTCACATGTAATACGGAGTCACCTAGTGCAG”, for which the binding signal is 27900 fluorescence intensity (a.u.).

As to “GATTAATTAGGTAGGGTTTCGTGAGAAACTCGTGAAGGGTCGGAGTCACCTAGTGCAG”, the binding signal is 12100 fluorescence intensity (a.u.). Then “CATTGAATTCAATTAATGGTTGGTTGAAAATCAAGATTCACGGAGTCACCTAGTGCAG”, with 7480 fluorescence intensity (a.u.).

Turning to “TTAATAAACTGACCGCATCACCCGCCGTACGTCGCCGTCGCGGAGTCACCTAGTGCAG”, the binding signal was 5290 fluorescence intensity (a.u.). “CTGACATATTAATTTTATTAATTTTGTTGAGTGATACATTCGGAGTCACCTAGTGCAG”: the binding signal is 21800 fluorescence intensity (a.u.). Then “ATCGGAAAACTTAATTATGTATGTAATCTCTCCCGGCCCCCGGAGTCACCTAGTGCAG”, with 11800 fluorescence intensity (a.u.); and “GATACAAATTAAACTCGACCCTATCTCGAGGGATATAAAGCGGAGTCACCTAGTGCAG”, with 3240 fluorescence intensity (a.u.); and “CATTCGCAGGATCGAGATTGATAACCGCAACTTTCCTGCACGGAGTCACCTAGTGCAG”, with 5900 fluorescence intensity (a.u.).

Regarding “AGTCAAAACATTTAGCATAATTGCAAATTTGCAAGTTGGGCGGAGTCACCTAGTGCAG”, the binding signal is 9050 fluorescence intensity (a.u.). Then “TAGATATAAATAAATTAGGAAAGATGATATGATGGATGGGCGGAGTCACCTAGTGCAG”, with 8000 fluorescence intensity (a.u.); and “GTAGACTAATAATAAAACAAATTACAGATTCTGCCTATAACGGAGTCACCTAGTGCAG”, with 3280 fluorescence intensity (a.u.). Under “CTTTATAATAGTTAATTTATTTATTTATACTATTTTATAACGGAGTCACCTAGTGCAG” stands 7550 fluorescence intensity (a.u.); under “TTGGTATAATTTATCTGTAATACTAACAAATATTGTATAGCGGAGTCACCTAGTGCAG”, 4130 fluorescence intensity (a.u.). Then “GAGGGATTGAAGATTCGAATTTCGAAGTATTGAACCATTGCGGAGTCACCTAGTGCAG”, with 13900 fluorescence intensity (a.u.); and “CGAGTAATCATGCGTTAATGGTTTTATCGTTTTACGTGTGCGGAGTCACCTAGTGCAG”, with 12300 fluorescence intensity (a.u.).

“ACTGTTATAGCATTGATTATTTGCACTCTAGCTGCATGGTCGGAGTCACCTAGTGCAG”: the binding signal was 6060 fluorescence intensity (a.u.). Under “ATGTTGACTAATGTAAACGATTCAACATACTAGGATCATGCGGAGTCACCTAGTGCAG” stands 5900 fluorescence intensity (a.u.); under “ACTTGATAAACTGTGCATAGACAGGACAATACTTATCTCCCGGAGTCACCTAGTGCAG”, 14900 fluorescence intensity (a.u.); under “ACTCATCATCAGTTTCTTTTGATTTGAATACTCATATTCACGGAGTCACCTAGTGCAG”, 6810 fluorescence intensity (a.u.).

On to “AGGATTGGACTGGCATTAGCTATGTCACTGGTAGATGGGACGGAGTCACCTAGTGCAG”, for which the binding signal is 3470 fluorescence intensity (a.u.). Then “CTACACAAATTATAATTTGCTAAGGGAGTATGCTTGGTAACGGAGTCACCTAGTGCAG”, with 35600 fluorescence intensity (a.u.); and “TGATAGTAATTAATAAACTTGTAAGGTGCACCCTCTGAAACGGAGTCACCTAGTGCAG”, with 3960 fluorescence intensity (a.u.).

For “GTAAATCTGAATAATTACAGGAATACCGAATACTCCTATGCGGAGTCACCTAGTGCAG”, the binding signal was 9600 fluorescence intensity (a.u.). Under “TAGCCATAAATTTATCACAAAATTACATGTTTAATACCAACGGAGTCACCTAGTGCAG” stands 6940 fluorescence intensity (a.u.).

On to “TGATGTTAATGAATCTAGATGGATATATATGTTTAGATTCCGGAGTCACCTAGTGCAG”, for which the binding signal was 3300 fluorescence intensity (a.u.). Regarding “TATATAATTATTTTCTTTCTACTGACTGGCTGTACATGCCCGGAGTCACCTAGTGCAG”, the binding signal is 29000 fluorescence intensity (a.u.). Under “CTGCTATGATTAATAGGATACACGGTATATTATTTCTGCACGGAGTCACCTAGTGCAG” stands 13000 fluorescence intensity (a.u.). “ATAGGATTGTTGTTTTGTTTTGATAGGATAAGATGGGCTACGGAGTCACCTAGTGCAG”: the binding signal was 4000 fluorescence intensity (a.u.). Then “ATGTATAATTTATAATTCACTAAATTATTCTCATTCCTCTCGGAGTCACCTAGTGCAG”, with 28400 fluorescence intensity (a.u.); and “TGACAACATTGATTATAACATGTGATATATTACTTCAGAACGGAGTCACCTAGTGCAG”, with 14100 fluorescence intensity (a.u.); and “ACTTCTAATCAGTACTCTGCTTCCCCAATCCCAACCTGCGCGGAGTCACCTAGTGCAG”, with 3380 fluorescence intensity (a.u.). Under “TCTGCAAACTAATCTATTGATTGAGTGGAGCGCATATTTTCGGAGTCACCTAGTGCAG” stands 25100 fluorescence intensity (a.u.); under “TGAGTTATGATTAGACAAGATTCTGAAACTAAACTTGTTTCGGAGTCACCTAGTGCAG”, 12900 fluorescence intensity (a.u.). Under “CGGGCGCCATGCCGTCAATCACACGCCATACAGATCAAACCGGAGTCACCTAGTGCAG” stands 4590 fluorescence intensity (a.u.).

Consider “AATATGATTTCCTCTGCGTGGAAAGAGATCAATTTAGCGACGGAGTCACCTAGTGCAG”, for which the binding signal is 6400 fluorescence intensity (a.u.). Then “CTGTCCATTTAATTATTTGTTCAATCCATTGGAGCAGTAGCGGAGTCACCTAGTGCAG”, with 14000 fluorescence intensity (a.u.); and “ACAAATTGAATTCAATGTGGTGCAATGTACTTTGCATGCGCGGAGTCACCTAGTGCAG”, with 33500 fluorescence intensity (a.u.); and “GGCTTACAATGATTTGGCCGAACAATCTACGTCTCGTCTCCGGAGTCACCTAGTGCAG”, with 5620 fluorescence intensity (a.u.). For “ACTTGCATGCTTAATTGATTTAGTTGGTGACCTTATATCTCGGAGTCACCTAGTGCAG”, the binding signal was 37800 fluorescence intensity (a.u.).

In the case of “CCTAGTCAATCCCCGGTATGAAGATTGTATCTCCCTTCGTCGGAGTCACCTAGTGCAG”, the binding signal was 7490 fluorescence intensity (a.u.). Then “AATTAATTAGCTCTCCTGCACATGCATGGTCCCTCACTGACGGAGTCACCTAGTGCAG”, with 23300 fluorescence intensity (a.u.); and “CCAAAATTGCAATTAGCCCCTTGCCGCCCTCTCGCAATTTCGGAGTCACCTAGTGCAG”, with 34500 fluorescence intensity (a.u.).

The record behind these values is paper PMC7819943, “Rice protein-binding microarrays: a tool to detect cis-acting elements near promoter regions in rice”.
